In all, about 310,000 compounds went through this assay and about 14,000 (4.5%) showed an effect of 50% or more. Effects have a minus sign here. The list shows a part of the results.
What follows are compounds tested against human ether-à-go-go-related gene (hERG) potassium channel (human, UniProt Q12809) (assay: primary screen, population patch clamp on CHO cells stably expressing hERG).
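Further: peak tail current of the secondary pulse compared with the same well before compound.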

Sequence of human ether-à-go-go-related gene (hERG) potassium channel (Q12809 whole entry, looked up): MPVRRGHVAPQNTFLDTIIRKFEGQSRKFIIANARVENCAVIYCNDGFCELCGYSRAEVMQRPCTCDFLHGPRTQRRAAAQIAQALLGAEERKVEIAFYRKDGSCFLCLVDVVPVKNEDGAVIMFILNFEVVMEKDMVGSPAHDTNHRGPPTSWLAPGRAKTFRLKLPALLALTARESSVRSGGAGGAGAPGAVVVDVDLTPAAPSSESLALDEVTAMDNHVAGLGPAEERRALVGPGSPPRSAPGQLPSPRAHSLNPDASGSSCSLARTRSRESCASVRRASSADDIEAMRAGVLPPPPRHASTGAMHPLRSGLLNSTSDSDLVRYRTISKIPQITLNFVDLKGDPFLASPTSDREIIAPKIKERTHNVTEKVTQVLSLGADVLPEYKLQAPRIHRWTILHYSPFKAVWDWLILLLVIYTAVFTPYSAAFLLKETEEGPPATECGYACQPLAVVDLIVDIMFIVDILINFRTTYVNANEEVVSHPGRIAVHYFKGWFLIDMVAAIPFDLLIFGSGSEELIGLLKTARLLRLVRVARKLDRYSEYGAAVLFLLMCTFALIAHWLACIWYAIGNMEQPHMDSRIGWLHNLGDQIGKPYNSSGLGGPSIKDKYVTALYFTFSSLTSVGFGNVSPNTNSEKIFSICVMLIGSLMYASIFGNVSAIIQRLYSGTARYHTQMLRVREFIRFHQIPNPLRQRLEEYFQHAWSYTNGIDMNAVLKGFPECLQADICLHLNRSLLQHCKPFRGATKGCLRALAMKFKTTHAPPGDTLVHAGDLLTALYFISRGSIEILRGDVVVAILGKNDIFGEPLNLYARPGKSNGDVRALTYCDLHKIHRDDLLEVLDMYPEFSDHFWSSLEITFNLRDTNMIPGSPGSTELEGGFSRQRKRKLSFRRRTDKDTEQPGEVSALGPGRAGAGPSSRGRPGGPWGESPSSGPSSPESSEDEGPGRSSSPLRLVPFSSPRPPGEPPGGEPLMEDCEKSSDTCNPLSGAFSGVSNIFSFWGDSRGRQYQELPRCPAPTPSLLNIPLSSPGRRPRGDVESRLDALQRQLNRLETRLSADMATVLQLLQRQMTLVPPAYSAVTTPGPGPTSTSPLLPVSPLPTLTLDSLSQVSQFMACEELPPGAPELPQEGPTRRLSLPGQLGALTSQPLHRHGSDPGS

Structure (SMILES) | hERG current change (%, negative = inhibition) at 10uM
Cc1cc(C(=O)NCC(=O)Nc2c(C)cccc2C)c(C)o1 | 12.5%
COc1ccc(-n2cc(CNCCc3cnc[nH]3)c(-c3cccc(F)c3)n2)cc1 | -28.9%
Cn1c(COc2nnc(-c3ccc(Cl)cc3)c3ccccc23)nc2ccccc21 | 5.78%
CCOC(=O)C(Cc1ccccc1)C(=O)Nc1cccc2ccccc12 (centres unmarked) | -11.8%
Cc1cccc(NC(=O)CSc2nnc(-c3cc(C)n(-c4ccccc4)c3C)o2)c1C | 6.46%
COc1ccc(-c2csc3ncn(-c4ccccc4)c(=O)c23)cc1OC | 0.363%
O=C(CN1CCOCC1)Nc1cccc(C(=O)Nc2cccc(C(F)(F)F)c2)c1 | -40.1%
CCC(c1nnc(SCC(=O)N2CCOCC2)n1C1CCCCC1)N(C)C (centres unmarked) | -7.08%
COc1cc(OC)nc(S(C)(=O)=O)n1 | 2.01%
COc1ccccc1NC(=O)Oc1cccc(OC(=O)c2ccccc2)c1 | 11.7%
CC(C)CCOP(N)(=O)Oc1ccccc1Cl (centres unmarked) | 18.1%
CCC[N+]1(CC#CCC(c2ccccc2)c2ccccc2)CCCCC1.[Br-] | -66.7%
O=C(Nc1ccc(S(=O)(=O)Nc2cnc3ccccc3n2)cc1)c1ccc([N+](=O)[O-])cc1Cl | -1.11%
COc1ccccc1C(=O)NC(=O)COC(=O)c1ccc([N+](=O)[O-])cc1Cl | 18.1%
Cc1nnc(Nc2ccccc2F)s1 | -0.816%
C/C=C(/C)C(=O)Nc1cccc(C2=NOC3(C2)C[C@@H](C(N)=O)N(C(=O)c2ccc(OC)cc2)C3)c1 (some centres unmarked) | 8.51%
O=C(c1ccc(F)cc1F)N1CCN(c2ncccn2)CC1 | 10.6%
COc1ccc(Nc2ccc([N+](=O)[O-])cn2)cn1 | 6.26%
CCOC(=O)c1ccc(NC(=S)N2CCN(CCO)CC2)cc1 | 19%
COc1ccc(OC)c(S(=O)(=O)N2CCC(C(=O)Nc3ccccc3)CC2)c1 | -14.1%
O=C(C1CCC(N2C(=O)C3CC=CCC3C2=O)CC1)N1CCCCC1 (centres unmarked) | 10.7%
Cc1ccc(C2(CCN)CCOC(C(C)C)C2)cc1 (centres unmarked) | 17%
O=C(/C=C/c1ccccc1[N+](=O)[O-])N1CCN(C(=O)c2ccco2)CC1 | -45.6%

Structure (SMILES) | hERG current change (%, negative = inhibition) at 10uM
C=CCc1ccc(OCCOCCOc2cccc3ccc(C)nc23)c(OC)c1.O=C(O)C(=O)O | -61.6%
FC(F)(F)c1cnc(NNC(=S)Nc2cccnc2)c(Cl)c1 | 26.3%
O=C(NCCN1CCOCC1)c1ccccc1Cl | 18.3%
CC(=O)N1N=C(c2cccs2)CC1c1cccs1 (centres unmarked) | 5.99%
CC(=O)OC1=C(C#N)Cn2ccc3cccc1c32 | 2.56%
CCN1C(=O)CC(N2CCC(C(=O)N3CCCCCC3)CC2)C1=O (centres unmarked) | 5.76%
O=C(CN1CCC(NC(=O)c2cccc(F)c2)CC1)Nc1ccc(Br)cc1 | -73%
O=S(=O)(NCCc1ccncc1)c1ccc(Br)cc1 | -21.5%
C/C(=N\NC(N)=O)c1cc(Cl)cc(Cl)c1O | 15.4%
O=C(/C=C/Nc1ccc(S(=O)(=O)Nc2ncccn2)cc1)c1ccc(Cl)c(Cl)c1 | -3.62%
C=CCC(CC=C)(NC(=O)c1ccccc1C)c1ccccc1 | 13.5%
CC1CCCCC1NC1=NCCS1 (centres unmarked) | 27.7%
Cc1cc(C(=O)NCCN2CCCCC2C)n(-c2ccccc2)n1 (centres unmarked) | -7.89%
O=C(NNC(=O)C1CCCN(c2ncccn2)C1)c1ccc(F)cc1 (centres unmarked) | 5.63%
NNc1nc2ccccc2nc1C(F)(F)F | 15.9%
CCOC(=O)Cn1ncc2c(=O)oc3ccccc3c21 | -0.743%
CC1CN(CC(O)COc2ccc(C#N)cc2)CCN1CC(O)COc1ccc(C#N)cc1 (centres unmarked) | -77.2%
O=C(Cc1ccccc1)NC1CCN(S(=O)(=O)c2cccc(F)c2)CC1 | 1.42%
Cc1ccc(C(C)C)c(OCC(O)CN2CCN(CCO)CC2)c1.Cl (centres unmarked) | -13.9%
O=C(NCC1CCCO1)c1cccc(NC(=O)c2ccco2)c1 (centres unmarked) | 0.813%
Cc1ccc(/C=N/NC(=O)CNC(=O)c2cccc([N+](=O)[O-])c2C)o1 | 17.4%
CC(=O)c1ccc(NC(=O)c2cc(-c3cccs3)on2)cc1 | 23.2%
CC(=O)COc1cc(C)cc2oc(=O)c(C)c(C)c12 | -5.86%

Structure (SMILES) | hERG current change (%, negative = inhibition) at 10uM
CC(NC(=O)N1CCOCC1)c1ccccc1 (centres unmarked) | 15.4%
Nc1nnc(C(c2ccccc2)c2ccccc2)s1 | 1.08%
Cc1cccc(OCC(=O)NC2CCCC2)c1 | 12.8%
O=C(O)C1CCCN1S(=O)(=O)c1ccc(Cl)cc1 (centres unmarked) | 1.76%
Cc1ccc(C(=O)COC(=O)COc2ccccc2C)cc1 | -3.79%
CNC(=S)NC1CC2CCCC(C1)N2Cc1ccc(C)cc1 (centres unmarked) | -38.9%
CC(=O)N1CC=CC1(C)C(=O)O (centres unmarked) | 15.5%
CCOC(=O)c1c(NC(N)=O)nc2n1CCC2 | 0.875%
Cc1c(NC(=O)/C(C#N)=C/c2ccc(-c3ccc(Cl)cc3)o2)c(=O)n(-c2ccccc2)n1C | -41.5%
N#CC1=C(N)Oc2c(oc(CO)cc2=O)C1c1ccsc1 (centres unmarked) | 8.61%
O=C(Nc1ccc(N2CCCC2)c(S(=O)(=O)Nc2cccc(C(F)(F)F)c2)c1)c1cccs1 | 12.8%
O=C(CNc1cccc(Cl)c1)c1ccc(Cl)cc1 | -9.86%
C=CCOc1ccc(CNc2nccs2)cc1 | -2.26%
COc1cccc(NC(=O)COC(=O)C2C3CC4OC(=O)C2C4C3)c1 (centres unmarked) | 12.7%
Cc1cccc(N(C(=O)c2csnn2)C(C(=O)NC(C)(C)C)c2cccs2)c1 (centres unmarked) | -11.2%
CC(Oc1ccccc1)C(=O)Nc1ccc(S(=O)(=O)N2CCOCC2)cc1 (centres unmarked) | -3.67%
O=C(O)CCCNC(=O)c1ccccn1 | 14.2%
CCCS(=O)(=O)N1CCCC(C(=O)Oc2ccccc2Cl)C1 (centres unmarked) | 13.2%
CCc1nnc(NC(=O)C(CC)CC)s1 | -9.5%
CCOC(=O)c1ccc(-n2c(CN3CCC(O)CC3)nc3ccc([N+](=O)[O-])cc3c2=O)cc1 | -2.33%
CCOC(=O)COc1ccc(Br)cc1/C=C\c1[nH]c(=O)[nH]c(=O)c1[N+](=O)[O-] | 5.23%
CC1CC1c1ccc(/C=C(\C#N)C(=O)Nc2ccc(Cl)cc2Cl)o1 (centres unmarked) | -10.6%
Cc1ccc(NC(=O)Nc2cnccn2)cc1Cl | 24.4%

Structure (SMILES) | hERG current change (%, negative = inhibition) at 10uM
Cc1ccc(C2N=C(N)Nc3nc4ccccc4n32)cc1 (centres unmarked) | 21.3%
O=C1CC(N2CCN(c3ccc(S(=O)(=O)N4CCCC4)cc3)CC2)C(=O)N1c1ccc(F)cc1 (centres unmarked) | -19.3%
CCCCN(C(=O)c1c(C)[nH]c(C(=O)OCC)c1C)c1ccccc1 | -2.68%
Cc1ccc(C(=O)OCC(=O)Nc2c(C)n(C)n(-c3ccccc3)c2=O)cc1[N+](=O)[O-] | -4.14%
CCOc1ccccc1N(CC(=O)Nc1ccc2c(c1)OCCO2)S(C)(=O)=O | -3.52%
CCOC(=O)c1nc(Nc2ccccc2)c2ccccc2n1 | -15.6%
CCOC(=O)c1cnc(SC)nc1Nc1cccc2ccccc12 | -0.466%
COc1ccc(CN(C)CC2CCCN(CCc3ccc(F)cc3)C2)cc1OC (centres unmarked) | -64.8%
CSc1nn2c(C)c(C)c(C)nc2c1C#N | -20.8%
O=C(Nc1ccc(S(=O)(=O)Nc2nccs2)cc1)c1cc(-c2ccncc2)nc2ccccc12 | 10.1%
O=C(CN1C(=O)c2cccc([N+](=O)[O-])c2C1=O)NCc1ccccc1 | -10.8%
COc1ccc(C2Nc3ccccc3C(=O)N2NS(C)(=O)=O)c(OC)c1 (centres unmarked) | 40.5%
C=CCNC(=O)CN1c2cccc3cccc(c23)S1(=O)=O | 14.5%
CCOC(=O)c1c(NC(=O)CSc2nc3c(c(=O)n(C)c(=O)n3C)n2CC)sc(C)c1C | 6.72%
O[C@H]1[C@H](O)[C@@H](O)CN2CC[C@H](O)[C@H]12 | 15.2%
C=CCN1C(=O)c2ccc(C(=O)NCCc3ccc(F)cc3)cc2C1=O | 8.87%
CC(=O)n1cc(/C=N/NC(=O)c2ccc(Cl)cc2)c2ccccc21 | 10.6%
CS(=O)(=O)Nc1ccccc1C(=O)NCc1ccccc1Cl | -5.24%
O=C(COC(=O)c1ccccc1[N+](=O)[O-])NNC(=O)c1cccs1 | -15.7%
CC(NC(=O)CCNS(=O)(=O)c1ccccc1)c1ccccc1 (centres unmarked) | 14.2%
COc1ccc(N2C(=O)C3CCCCC3C2=O)cc1NC(=O)c1ccccc1 (centres unmarked) | -16.9%
CCN(CC(=O)NCc1cccs1)C(=O)CCCOc1ccc(C(C)(C)C)cc1 | -52.6%
COc1ccc(S(=O)(=O)N2CCN(Cc3cccc(OC)c3OC)CC2)cc1 | -1.09%

From PMC4336329 (PLoS ONE, 2015)
